Assay results published in patent publication US8415399B2, “Retrovirus-infection inhibitor” (Nagasaki University, priority 2006, dated 2013).
Read-outs that look alike come from different tables or passages of the source.

System: CXCR4-tropic HIV-1 (HXB2) vector
Details: for HIV vector infection (qualitative): NP2/CD4/X4, TE671/CD4 and HeLa/CD4 cell, various concentrations
Description: pLP1; pLP2, pLenti6/V5-GW/LacZ and HXB2 env plasmid DNA (each 3 μg) were transfected to 293T cells, cultured in a 10 cm culture dish, according to a lipofection method (Mirus or Invitrogen). After 24 hr, the medium was exchanged with a fresh medium. […] CXCR4-tropic HIV vector was present in the culture medium.
HIV vector was inoculated and the cells were cultured for 24 hr. The medium was exchanged with a fresh medium and the cells were further cultured for 24 hr. The cells were fixed with glutaraldehyde and stained with X-Gal overnight. The cells stained blue was counted and the value was used as an infectivity titer.
Fenretinide was added to Dulbecco-modified Eagle medium (Sigma Ltd. or Wako) containing 2% fetal bovine serum and antibiotic to various concentrations, and the target cells were cultured for 2 days at 37° C. in the presence of 5% CO2. HIV vector (culture supernatant containing HIV vector, mentioned above) was inoculated to the cells and the infectivity titer was measured.

| Structure (SMILES) | HIV vector infection (qualitative) | HIV-1 vector infection decreased to (relative to untreated) (NP2/CD4/X4 cell, 5 μM, Example 3) | HIV-1 vector infection suppressed to (relative to untreated) (NP2/CD4/X4 cell, 20 μM, Example 3) | HIV-1 vector infection suppressed to (relative to untreated) (NP2/CD4/X4 cell, 2 μM, Example 3) |
| --- | --- | --- | --- | --- |
| CC(C)=CCC/C(C)=C/CC/C(C)=C/C=C/C(C)=C/C(=O)O [NIK-333] | have an HIV vector infection suppressive action | 20% | – | – |
| CC(C)=CCC/C(C)=C/CC/C(C)=C/CC/C(C)=C/C(=O)O [GGA, geranylgeranoic acid] | suppress HIV vector infection in a concentration-dependent manner | – | 10% | – |
| CC1=C(/C=C/C(C)=C/C=C/C(C)=C/C(=O)Nc2ccc(O)cc2)C(C)(C)CCC1 [fenretinide, 4-Hydroxyphenylretinoid, reference compound] | suppressed infectious property of HIV vector in a concentration-dependent manner | – | – | 40% |
